Consider 1 molecule from PMC4245960 (Nucleic Acids Research, 2014).

In this test the target is T1, His-EngA (Escherichia coli EngA, His-tag containing version) (E. coli, UniProt P0A6P5 1-490).
T1 sequence (looked up): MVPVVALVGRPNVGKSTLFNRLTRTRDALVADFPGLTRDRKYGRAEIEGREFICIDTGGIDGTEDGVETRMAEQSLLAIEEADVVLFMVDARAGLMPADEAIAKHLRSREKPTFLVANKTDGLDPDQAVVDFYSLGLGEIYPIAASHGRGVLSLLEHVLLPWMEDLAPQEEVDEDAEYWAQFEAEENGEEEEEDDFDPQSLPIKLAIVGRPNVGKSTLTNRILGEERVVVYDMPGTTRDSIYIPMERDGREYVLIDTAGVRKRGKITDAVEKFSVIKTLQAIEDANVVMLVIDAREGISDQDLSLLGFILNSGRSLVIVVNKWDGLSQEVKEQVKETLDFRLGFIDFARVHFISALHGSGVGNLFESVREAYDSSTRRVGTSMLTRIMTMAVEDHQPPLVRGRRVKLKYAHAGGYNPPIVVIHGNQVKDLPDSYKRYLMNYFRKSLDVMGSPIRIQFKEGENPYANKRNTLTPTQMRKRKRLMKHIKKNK
Put plainly: cryo-EM structure.

B1: ribosomal protein L1 (in the 50S subunit) (natural protein)
chain: not shown
In the case of B1, the binding result is listed as “binds”.
